# The campaign covered roughly 420,000 compounds. About 64,000 (15%) were called active. Inconclusive means that the source gave no clear call. Such entries were picked first, then a sample of the others. Calls come from the whole dose curve; as a rule, active = well fitted inhibition curve with a large enough effect; inconclusive = small, poorly fitted or top-dose-only effect; inactive = flat fitted curve, though single readings scatter. No potency is given beside an inconclusive call; the fits are too rough.
# Assay: qHTS for Inhibitors of human tyrosyl-DNA phosphodiesterase 1 (TDP1): qHTS in cells in absence of CPT; note: nearly all actives have a fitted effect of over 55% in size
# Conditions: DT40 Tdp1-/- hTDP1 cells, no CPT, ATP luminescence, 48 h; activity change, negative = growth inhibition: at 46.2 µM (top of the series) unless noted
# Summary of the method: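 Camptothecin absent (DMSO only). Human TDP1-complemented DT40 knockout cells, 400 cells/well, 37 °C for minimum 48 hr; ATP measured via CellTiter-Glo, 30 min dark incubation, luminescence.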
# % is set by controls: 0 for no effect and ±100 for the full control effect; potency is the fitted concentration of half-maximal effect; tags give direction and shape of the fitted curve.
Compound,Potency,"activity change, negative = growth inhibition"
NCCc1c(-c2ccccc2)n(-c2ccccc2)c2ccccc12,"inconclusive [inhibitor, single point]",
COC(=O)C1=C(C)N(c2ccc(Cl)cc2)/C(=C/c2ccc(O)cc2)C1=O,"inconclusive [inhibitor, single point]",
COc1ccccc1CCNC(=O)C1CCC(=O)N(Cc2cccc(F)c2)C1 (centres undefined),"inconclusive [inhibitor, single point]",
CC(=O)N1CCN(c2ccccc2NC(=O)COc2cc(C)ccc2C(C)C)CC1,"inconclusive [inhibitor, partial curve]",
O=C(CSc1nc(=O)n(CCN2CCOCC2)c2c1CCC2)Nc1ccc(Cl)c(Cl)c1,"inconclusive [inhibitor, partial curve]",
Cc1ccc(C23CC4CC(CC(CN)(C4)C2)C3)cc1,active: 10.3 µM,
COc1cccc(-c2cnc3c(NC=O)cc(-c4cc(C)c(O)c(C)c4)cn23)c1,active: 4.61 µM,
CC1OC23CCCCC2C(C#N)(C(=N)O3)C1(C#N)C#N (centres undefined),"inconclusive [inhibitor, single point]",
Cc1ccc2nc(SCc3nc(-c4ccc(Cl)cc4)no3)[nH]c2c1,active: 23.1 µM,
CC1(OC(=O)CCc2ccccc2)C(=O)C=C2C=C(c3ccc(C#N)cc3)N(C(CO)CO)C=C2C1=O (centres undefined),,inactive: -0.0295%
COc1ccccc1-c1csc(C(NC(C)=O)c2ccc(F)c(F)c2)n1 (centres undefined),"inconclusive [inhibitor, single point]",
CN(Cc1cccc(Cl)c1Cl)C(=O)c1ccccc1SCC(=O)N1CCCC1,active: 13 µM,
O=C(NCCCN1CCOCC1)C(=O)N/N=C/c1cccc2ccccc12,,inactive: -5.32%
COCCCn1c(=N)c(C(=O)NCC2CCCO2)cc2c(=O)n3cccc(C)c3nc21 (centres undefined),"inconclusive [inhibitor, partial curve, poor fit]",
CCN(C(=O)COC(=O)c1ccc2c(c1)OCO2)c1ccccc1,"inconclusive [inhibitor, single point]",
COc1ccc(-c2n[nH]nc2C2=CC(=O)CC(C)(C)C2)cc1,"inconclusive [inhibitor, single point]",
O=C(Nc1cccc(F)c1)NC1CCCc2ccccc21 (centres undefined),"inconclusive [inhibitor, single point]",
CCc1ccc(CN(C)CC(=O)Nc2sccc2C#N)cc1,"inconclusive [inhibitor, partial curve]",
N#Cc1ccc(C(=O)NC2CCCCCCC2)cc1,"inconclusive [inhibitor, single point]",
CCCC(C(=O)Nc1ccc2c(C)cc(=O)oc2c1)c1ccccc1 (centres undefined),"inconclusive [inhibitor, partial curve]",
COCCN(Cc1ccccc1)C(=O)c1ccc(C(=O)c2ccccc2)cc1,"inconclusive [inhibitor, single point]",
O=C(CN1CCN(c2ccccc2O)CC1)Nc1cc(S(=O)(=O)N2CCCC2)ccc1Cl,"inconclusive [inhibitor, single point]",

Compound,Potency,"activity change, negative = growth inhibition"
O=C(CN1CCN(Cc2ccccc2)CC1)Nc1ccc(N2CCOCC2)cc1,,inactive: -0.988%
Cc1sc2ncnc(SCC(=O)c3ccc4c(c3)OCCO4)c2c1-c1ccccc1,active: 9.2 µM,
Cc1cc2c(cc1S(=O)(=O)Nc1cccc(Cl)c1C)n(C)c(=O)c(=O)n2C,,inconclusive: -31.4% [inhibitor]
S=C(NCc1ccccc1)NC1CCCc2ccccc21 (centres undefined),"inconclusive [inhibitor, single point]",
Cc1ccccc1NC(=O)COC(=O)c1ccc(C)c(S(=O)(=O)N2CCCCC2)c1,"inconclusive [inhibitor, single point]",
CCOC(=O)CSc1nc2c(c(=O)[nH]c(=O)n2C)n1C/C=C(/C)Cl,,inactive: -24.5%
CCOc1cc(C(=O)OCc2ccc(OC)cc2)ccc1OCC(=O)N1CCOCC1,"inconclusive [inhibitor, single point]",
O=C(c1ccc(CS(=O)(=O)c2ccccc2)o1)N1CCOCC1,,inactive: -1.68%
Cc1ccc(NS(=O)(=O)c2ccc(NC(=O)CN(c3cc([N+](=O)[O-])ccc3C)S(C)(=O)=O)cc2)c(C)c1,"inconclusive [inhibitor, single point]",
Fc1ccccc1CN1CCCN(C(=S)Nc2cccc(Cl)c2)C1,"inconclusive [inhibitor, single point]",
COCC(=O)N(C)c1nnc(-c2cnc(C)cn2)s1,,inactive: -15.8%
Cc1cccc2nc(-c3ccccn3)c(Nc3ccc(F)cc3)n12,active: 18.4 µM,
CC(=O)N1c2ccc(S(=O)(=O)NCCC(=O)Nc3ccc(C)c(Cl)c3)cc2CC1C (centres undefined),active: 13 µM,
CC1(C(=O)NCc2ccccc2)CN(S(C)(=O)=O)CC(=O)N1C1CC1 (centres undefined),,inactive: 5.73%
CCOc1ccc(C(=O)CCC(=O)Nc2ccncc2)cc1,"inconclusive [inhibitor, single point]",
CCOc1ccc(-n2ccnc(SCC(=O)NC3CCCC3)c2=O)cc1,"inconclusive [inhibitor, single point]",
COC(=O)C[C@H]1CC[C@@H](NC(=O)C2CC2)[C@@H](CO)O1,,inactive: 13.8%
C/C(=N\N=c1/scc(C)n1Cc1ccco1)c1cccc([N+](=O)[O-])c1,"inconclusive [inhibitor, single point]",
CC(=O)Oc1ccc2cc(-c3nc4c(s3)CCc3ccccc3-4)c(=O)oc2c1,"inconclusive [inhibitor, single point]",
Cc1cc(C)c2nc(N3C(=O)C(O)=C(C(=O)c4ccco4)C3c3ccco3)sc2c1 (centres undefined),"inconclusive [inhibitor, single point]",
COc1ccc(/C=N/NC(=O)CN(C2=NS(=O)(=O)c3ccccc32)c2ccccc2)cc1OC,"inconclusive [inhibitor, partial curve]",
Cc1ccc(C)c(NC(=O)CN(C)C(=O)c2cc3ccccc3o2)c1,"inconclusive [inhibitor, single point]",
